Experimental data as given in PubChem BioAssay AID686978 (National Center for Advancing Translational Sciences (NCATS), 2013).
Among all 420,000 compounds or so, about 64,000 (15%) were called active. The shares of active, inactive and inconclusive entries below differ from those in the screen. Calls follow the shape of the dose curve; as a rule, active = well fitted inhibition curve with a large enough effect; inconclusive = small, poorly fitted or top-dose-only effect; inactive = flat fitted curve, though single readings scatter. Potencies of inconclusive entries are left out as doubtful fits.

Assay: qHTS for Inhibitors of human tyrosyl-DNA phosphodiesterase 1 (TDP1): qHTS in cells in absence of CPT; also: nearly all actives have a fitted effect of over 55% in size
Conditions: DT40 Tdp1-/- hTDP1 cells, no CPT, ATP luminescence, 48 h; activity change, negative = growth inhibition: at 46.2 µM (top of the series)
Procedure, shortened: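 Stably hTDP1-transfected Tdp1-null chicken DT40 cells were treated with library compounds minus camptothecin and grown for at least 48 hr at 37 °C, after which cellular ATP was quantified by luminescence.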
% is scaled to controls: 0 for no effect and ±100 for the full control effect; potency is read from the fitted curve at half-maximal effect; tags tell the direction and shape of the fitted curve.

Row | Structure (SMILES) | Potency | activity change, negative = growth inhibition
1 | O=C(N/N=C\c1ccc(Br)cc1)c1ccc(Cn2cccn2)o1 | inconclusive [inhibitor, full curve, poor fit] | –
2 | COc1cccc(S(=O)(=O)N(C)C[C@H]2OCc3cn(nn3)CCCC(=O)N([C@H](C)CO)C[C@@H]2C)c1 | – | inactive: 10.8%
3 | CN(C)CCCNC(=S)N(Cc1cccs1)Cc1cc2cc3c(cc2[nH]c1=O)OCCO3 | inconclusive [inhibitor, partial curve] | –
4 | Cc1c(-c2ccccc2)sc(Br)c1C(=O)N1CCOCC1 | inconclusive [inhibitor, single point] | –
5 | O=C(Nc1ccc2c(c1)OCO2)C1Cc2c(-c3cccnc3)ccnc2O1 (centres undefined) | inconclusive [inhibitor, single point] | –
6 | COc1ccc(-c2cccc([C@H]3[C@@H]4C=CC[C@@H](C)[C@@H]4C(=O)N3Cc3ccccc3)c2)cc1 | active: 20.6 µM | –
7 | Cc1cccc(NC(=O)CSc2nnc(-c3cnccn3)n2Cc2ccco2)c1 | – | inactive: -29.4%
8 | COc1ccc(NC(=O)c2ccc(COc3ccc(C)cc3)o2)cc1 | inconclusive [inhibitor, full curve, poor fit] | –
9 | CN(Cc1ccccc1)C(=O)c1[nH]cnc1C(=O)NCc1ccc(CNC(=O)OC(C)(C)C)cc1 | active: 13 µM | –
10 | Cc1cccc(NC(=O)CNC(=O)[C@H]2O[C@@H](n3ccc(=O)[nH]c3=O)[C@H](O)[C@@H]2O)c1C | – | inactive: -19.1%
11 | Cc1cccc(C(=O)N2CCc3cc(-c4csc(NC(=O)CN5CCCC5)n4)ccc32)c1 | inconclusive [inhibitor, partial curve, poor fit] | –
12 | Cn1ccnc1SCC(=O)Nc1ccc(Br)cc1C(F)(F)F | – | inactive: -18.1%
13 | CN1OC[C@@H]2CN(C(=O)CCc3ccccc3)[C@H](c3cccc(-c4ccc(C#N)cc4)c3)C[C@@H]21 | inconclusive [inhibitor, single point] | –
14 | COC(C[C@H](O)CC(=O)[C@@H](C)OCc1ccccc1)OC | – | inactive: -3.29%
15 | COc1ccc(NC(=O)n2ncc3cc(Cl)ccc32)cc1OC | – | inactive: 5.93%
16 | COc1cccc(-c2cnc(C(O)c3c(C)cccc3C)[nH]2)c1 (centres undefined) | inconclusive [inhibitor, single point] | –
17 | CCOc1ccc(CCN2C(=S)N([C@@H](Cc3ccc(O)cc3)CN3CCC[C@@H]3CN3C(=S)NC[C@@H]3CC(C)C)C[C@@H]2CC(C)C)cc1 | active: 20.6 µM | –
18 | COc1ccc(C2=CCCCCC2)cc1OC | active: 11.6 µM | –
19 | CC(=O)c1cccc(NC(=O)N2CCCC2C(=O)NCCc2ccccc2)c1 (centres undefined) | – | inactive: 0.243%
